The list shows a part of the results. These are further read-outs of the screen, such as a control signal, another cell line or another target. No call is given for them.
Key:
Assay in all cases: Primary Screen for Target Class Profiling of Small Molecule Inhibitors of Methyltransferases
[1] = target: Glycine N-methyltransferase (Homo sapiens) (UniProt Q14749); conditions: purified enzyme, MTase-Glo SAH luminescence; measured here: GNMT inhibition; at 40 µM; stronger effect = lower value
Procedure, shortened: (§1)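 Each enzyme was assayed with SAM and its substrate. SAH formation detected by MTase-Glo luminescence; single-point 40 uM screen[…].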

[2] = target: Guanidinoacetate N-methyltransferase (Homo sapiens) (UniProt Q14353); conditions: purified enzyme, MTase-Glo SAH luminescence; measured here: GAMT inhibition; at 40 µM; stronger effect = lower value
Procedure, shortened: as §1

[3] = target: Histamine N-methyltransferase (Homo sapiens) (UniProt P50135); conditions: purified enzyme, MTase-Glo SAH luminescence; measured here: HNMT inhibition; at 40 µM; stronger effect = lower value
Procedure, shortened: as §1

[4] = target: Nicotinamide N-methyltransferase (Homo sapiens) (UniProt P40261); conditions: purified enzyme, MTase-Glo SAH luminescence; measured here: NNMT inhibition; at 40 µM; stronger effect = lower value
Procedure, shortened: as §1

[5] = target: Phenylethanolamine N-methyltransferase (Homo sapiens) (UniProt P11086); conditions: purified enzyme, MTase-Glo SAH luminescence; measured here: PNMT inhibition; at 40 µM; stronger effect = lower value
Procedure, shortened: as §1
% is set by controls: 0 for no effect and ±100 for the full control effect.

| Compound | activity change, negative = inhibition [1] [%] | activity change, negative = inhibition [2] [%] | activity change, negative = inhibition [3] [%] | activity change, negative = inhibition [4] [%] | activity change, negative = inhibition [5] [%] |
| --- | --- | --- | --- | --- | --- |
| Cc1ccccc1CNC(=O)c1ncn2c1C(=O)N(C1CC1)C(C)(C(=O)NCc1ccc(F)cc1)C2 (configuration not stated) | 5.28 | 5.4 | 7.62 | 7.63 | 10.5 |
| COCCN1C(=O)c2ccccc2C(C(=O)Nc2nnc(C)s2)C12CCCCC2 (configuration not stated) | 0.735 | 0.973 | 1.06 | 3.91 | 2.01 |
| C[S+](=O)([O-])N1Cc2ccccc2OC2(CCN(C(=O)c3cccc4[nH]ccc34)CC2)C1 | -12.6 | -7.04 | -3.48 | -10.1 | -6.19 |
| CCOC(=O)c1cc2n(n1)CC(C)(C(=O)NC1CCC(C)CC1)N(c1ccc(C)c(Cl)c1)C2=O (configuration not stated) | 2.32 | 6.04 | 6.53 | -4.53 | 2.33 |
| COc1cccc(Nc2ncc3c(n2)C(C)(C(=O)N2CCN(c4ccccn4)CC2)CC3)c1 (configuration not stated) | -4.02 | -1.11 | -0.852 | -12.2 | -4.62 |
| COc1ccccc1-c1nc(SCC(=O)Nc2ccc(C)c(C)c2)n[nH]1 | – | 1.42 | – | -28.2 | -4.8 |
| Cn1ncc(N2CCCC(C(=O)NCCCc3ccccc3)C2)cc1=O (configuration not stated) | -4.29 | -5.43 | -5.85 | -13.4 | -11.3 |
| Cc1ccc(C(=O)N2CCC3(CC2)CC(N2CCN(CC(C)C)CC2)CCO3)cn1 (configuration not stated) | -3.32 | -5.1 | -1.31 | -5.56 | -18.9 |
| CC(C)C1c2cccn2CCN1C(=O)Nc1ccccc1 (configuration not stated) | 15.6 | 0 | 8.16 | 5.71 | 7.25 |
| O=C(CCn1ccc2cc(S(=O)(=O)N3CCCC3)ccc21)NCc1ccccc1Cl | -5.88 | -0.979 | 0.603 | -7.56 | -4.17 |
| O=S(=O)(c1ccccc1)N1CCC(CCOc2ccccc2)C1 (configuration not stated) | 1.27 | -1.22 | 0.731 | 0.4 | -7.35 |
| O=C(Nc1ccc(F)cc1)c1ccnc2[nH]ccc12 | -6.42 | 0.731 | -3.27 | -10.2 | -5.5 |
| NC(=O)c1cccc2cn(-c3ccc(C4CCCNC4)cc3)nc12 (configuration not stated) | -5.52 | – | -65.7 | – | – |
| Cc1ccc(Cn2c(=O)c3ccccc3n3c(SCC(=O)NC(C)C)nnc23)cc1 | -0.93 | 0 | 6.39 | 2.46 | 3.51 |
| CC(C)OCCCn1c(=O)c2ccccc2n2c(CCC(=O)Nc3ccccc3)nnc12 | -8.27 | 5.08 | 1.68 | 2.43 | -7.36 |
| O=C(Cn1ccc2cc(S(=O)(=O)N3CCCC3)ccc21)NCc1ccccc1Cl | 6.66 | 4.08 | 2.74 | -0.539 | -0.799 |
| N=S(=O)(O)Cc1noc2ccccc12 | -0.86 | 5.49 | -0.951 | -3.02 | 3.69 |
| COc1ccnc(CS(=O)c2nc3cc(OC(F)F)ccc3[nH]2)c1OC (configuration not stated) | -8.07 | – | -0.808 | – | – |
| CCCn1c(=O)c2ccc(Cl)cc2n2c(=O)n(Cc3ccc(F)cc3)nc12 | 0.228 | 4.74 | 5.19 | -2.58 | 2.54 |
| CN1Cc2nc(OCc3ccc(F)cc3)ccc2OCC1=O | -8.35 | -4.02 | -1.51 | -11.4 | -14.2 |
| C[C@@H]1O[C@@H](O[C@H]2[C@H](OC(=O)[C@]34CCC(C)(C)C[C@H]3C3=CCC5[C@@]6(C)C[C@H](O)[C@H](O[C@@H]7O[C@H](CO)[C@@H](O[C@@H]8O[C@H](CO)[C@@H](O)[C@H](O)[C@H]8O)[C@H](O)[C@H]7O)[C@@](C)(CO)C6[C@H](O)C[C@@]5(C)[C@]3(C)C[C@H]4O)OC[C@H](O)[C@@H]2O)[C@H](O)[C@H](O)[C@H]1O[C@@H]1OC[C@@H](O)[C@H](O[C@@H]2OC[C@](O)(CO)[C@H]2O)[C@H]1O (some centres not stated) | -7 | -5.4 | 6.07 | -15.8 | -5.93 |
| Cc1ccc(NC(=O)CN(C)S(=O)(=O)c2ccc3[nH]c4c(c3c2)CCCC4)cc1F | 0.651 | 6.15 | 2.34 | 0.29 | 0.42 |
| O=C(c1ccc(OC2CCN(C(=O)C3CCCC3)CC2)nc1)N1CCOCC1 | 2.06 | -5.47 | -2.24 | -1.39 | -12.2 |
| O=C(C1CCCN([S+](=O)([O-])c2cccs2)C1)N1CCC(N2CCCC2=O)CC1 (configuration not stated) | -2.44 | -1.44 | 0.876 | -5.29 | -1.79 |
| O=C1CO[C@H]2CCN(CCCc3ccccc3)CC[C@@H]2N1c1ccccc1 | -5.6 | -1.73 | -5.49 | -9.86 | -1.58 |
| CCCn1c(=O)c2ccc(C(=O)NCC(C)C)cc2n2c(=O)n(CC(=O)Nc3ccc(CC)cc3)nc12 | 5.29 | 0 | 7.91 | -0.193 | 4.16 |
| Cc1c(Cl)cccc1S(=O)(=O)Nc1nc(NCCc2ccccc2)nc2c1CN(Cc1ccccc1)CC2 | -1.45 | -18.6 | 2.71 | -47.7 | -35.7 |
| CC(=O)N1CCN(c2nc3c(s2)CC(C(=O)NCc2ccc(C(C)C)cc2)CC3)CC1 (configuration not stated) | -3.85 | -1.48 | -0.723 | -9.13 | 2.96 |
| CCOCCCNc1nc2c(S(=O)(=O)c3ccccc3)nnn2c2ccccc12 | -2.36 | 4.21 | 3.16 | 4.36 | -3.91 |
| CCOC(=O)c1cc2n(n1)CC(C)(C(=O)NC1CCCCCC1)N(c1cc(C)ccc1C)C2=O (configuration not stated) | 8.3 | 1.48 | -11.6 | 6.93 | 6.7 |

— PubChem BioAssay AID1745853 (National Center for Advancing Translational Sciences (NCATS), 2022)
